Assay results from the RNAGym collection of RNA variant scans (doi:10.1073/pnas.2313332121).
Variants at the background level are over-represented here.

B1: TPR 5TU (parent)
chain: GGAUCUUCUCGAUCUAACAAAAAAGACAAAUCUGCCACAAAGCUUGAGAGCAUCUUCGGAUGCAGAGGCGGCAGCCUUCGGUGGCGCGAUAGCGCCAACGUUCUCAACUAUGACACGCAAAACGCGUGCUCCGUUGAAUGGAGUUUAUCAUG

Variants of: B1
Assay: polymerase ribozyme fitness, log enrichment relative to wild type (log ratio); higher = more active; in vitro selection for triplet polymerase activity
Summary of the method: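 Mutant libraries for each subunit of a heterodimeric triplet polymerase ribozyme were made by PCR and then transcribed. Each library underwent one round of in vitro selection in triplicate: annealing with a biotinylated primer, the partner subunit and triplets, frozen incubation at −7 °C, gel excision of extended constructs, streptavidin-bead capture and RT-PCR. Input and output libraries were Illumina-sequenced, and only genotypes with ≥10 input reads and ≥1 read per output were kept. Fitness is the logarithm, base 2, of genotype enrichment over wild-type enrichment, computed from inverse-variance-weighted replicate averages.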

| Variant | polymerase ribozyme fitness (log ratio) |
| --- | --- |
| G11U C51U C87U U101G | ≤ -4.2 |
| A12U C14U A37U A47C G92A C105A | ≤ -4.2 |
| U13G C27G G42C C95A A110U A150U G152U | ≤ -4.2 |
| U13C A19C A20U A30G G67A C85A G88U C129G U139G U151A | ≤ -4.2 |
| U13C A39G U101G A137C | ≤ -4.2 |
| U13A G34U G94A U102G | ≤ -4.2 |
| A12U A22U A47G G48A A91U A97C A110C U144A C149G | ≤ -4.2 |
| U13G A23G U45G G86U G88U C108U | ≤ -4.2 |
| A12U A26C C36U | -3.95 |
| U13C G58U U61A A73U U90G C95G | ≤ -4.2 |
| G11U U56A C79G C87G C96U A142G | ≤ -4.2 |
| A12U C14G A20G G46A G65C C85A | ≤ -4.2 |
| U13C G42A A73U U78A C96G U111A A120U A138G | ≤ -4.2 |
| A12C C18G A40U C123U G136U | -3.09 |
| A12C A17G A39G U44G G46C G59A G74C C87A C125A G128U | ≤ -4.2 |
| A12C A19U A47U U53A C85A C118G U127C G143U | ≤ -4.2 |
| G11U C38U U44A C57U C93G C103G | ≤ -4.2 |
| A12C C43U C69G U77G A121U C149A | ≤ -4.2 |
| U13G A17G U45G C85U A120G G141C | ≤ -4.2 |
| A12U C18G G42A U61G A73G G94C A137G | ≤ -4.2 |
| A12U C85G | -1.91 |

| Variant | polymerase ribozyme fitness (log ratio) |
| --- | --- |
| A12U C85U | -0.742 |
| A12U A28G U31A U33A A64U G68A A150G | ≤ -4.2 |
| A12G A19U A41U G50C C85U G133A U148C | ≤ -4.2 |
| U13G C54G C95U U104G U130G U139A | ≤ -4.2 |
| A12G A73U C76G | ≤ -4.2 |
| A12U A24G C36A A64U G83A | ≤ -4.2 |
| G11U A39U U44G C79U G84C G136U | ≤ -4.2 |
| A12G A39U C43G U61C C96U A119G G128U | ≤ -4.2 |
| A12U A24U G92A C103G A106C U139A | ≤ -4.2 |
| U13C A16G C18A C35A C87U | ≤ -4.2 |
| G11U A21C C87A | ≤ -4.2 |
| A12C C14A U90C A91G | ≤ -4.2 |
| U13G A40G G88A C103A C123G A138C | ≤ -4.2 |
| A12U C36A C72G C76A C93A G94U C114A C118A | ≤ -4.2 |
| A12G A29U U31A G67U C72A G92U A137G | ≤ -4.2 |
| A12C A23U G25C G50U U55A C87U A120G A142U A150U | ≤ -4.2 |
| A12C G50C G65A C76G G83U | ≤ -4.2 |
| A12C C18U C36U C93A U104A C131G | ≤ -4.2 |
| U13G G48U C96A A110G C118A | ≤ -4.2 |
| U13C U53G G74C G143C | ≤ -4.2 |
| A12G A26C C35U C87A C93U A138C G141A | ≤ -4.2 |

| Variant | polymerase ribozyme fitness (log ratio) |
| --- | --- |
| U13C C18A G48C U53A G86U C87A G100U U146A | ≤ -4.2 |
| A12U C35A C79U C96A A110G C118U C125A | ≤ -4.2 |
| A12U U56G A91G | -2.61 |
| A12C A64C U144G | ≤ -4.2 |
| A12U A22U U33G A41C G48C C85A G140A | ≤ -4.2 |
| U13A A52G G68C G80A U82G C95G C105U C114A U145G | ≤ -4.2 |
| A12C A20C U53A C76A U151G | ≤ -4.2 |
| A12U C14G C32U C36G C63U G65A G86A C103G A106C | ≤ -4.2 |
| A12U A16C A23G G46U A73U G80A C103G | ≤ -4.2 |
| U13G A28U A37C A41G A73U G86C G136C | ≤ -4.2 |
| A12C C32G U53A G62A G83A C99G G141U | ≤ -4.2 |
| A12U A40C C54U A60C A64G C85G C87A C96U C103A G136U | ≤ -4.2 |
| A12G A30U C51G C57U C95G U101G G136A | ≤ -4.2 |
| A12C A40G G59U A60C C118G | ≤ -4.2 |
| U13A C43A C95U | ≤ -4.2 |
| U13C A24C U45G G84U U135C | ≤ -4.2 |
| A12G G59A G94C | -0.564 |
| A12C A17G A23C A26U A37U C103A | ≤ -4.2 |
| A12G A49C G58A G70C U77C G88A C116G | ≤ -4.2 |
| A12C C27U A49C C57U C85U A89U C105U | ≤ -4.2 |
| A12C A23U C57U G67A U151G | ≤ -4.2 |

| Variant | polymerase ribozyme fitness (log ratio) |
| --- | --- |
| G11U C99G C125G G136U U146G | ≤ -4.2 |
| U13G A16U G68A U77C A110G | ≤ -4.2 |
| A12U C87A C103G U135G | ≤ -4.2 |
| A12C A29G C35U C51U C93U C116A U135G | ≤ -4.2 |
| U13A G42A C57G G62A G67U | ≤ -4.2 |
| U13C U33A C54A C95G A98C C99A A150G | ≤ -4.2 |
| A12C C38G G46A G59C C79A G140C | ≤ -4.2 |
| A12U U82C G86C | ≤ -4.2 |
| U13A A21C G92A G100C | ≤ -4.2 |
| U13C A20C A22C C36U A113C C118U | ≤ -4.2 |
| U13G A21U A22U A40U G70A C76G G83A G117C A120C G126A G133C | ≤ -4.2 |
| A12G U45A A52U U55A C79G G81A A98G | ≤ -4.2 |
| A12C A23G U31C U55A | ≤ -4.2 |
| A12C A29U C85G G126U C132G | ≤ -4.2 |
| A12G C93U | -1.21 |
| U13C A23U G86U U145G | ≤ -4.2 |
| A12C A19U U31G A41C C93A G141A | -3.98 |
| U13A A24G U53C U55A U56A A91U U111C C123U C131A C132U | ≤ -4.2 |
| A12C C54U G86C G94U C103G G117C G133C | ≤ -4.2 |
| A12U A21G C75A C95U A138U G143U | ≤ -4.2 |
| U13G A19G G25C C79A C131G U145G | ≤ -4.2 |
